Some of the results follow. At the low end of the ranking, values are background and their order means little. The protein was read in a cell extract, so binding may be indirect.
Target: T1, HNF4alpha2 (COS-7 nuclear extract) (UniProt P41235)
T1 sequence: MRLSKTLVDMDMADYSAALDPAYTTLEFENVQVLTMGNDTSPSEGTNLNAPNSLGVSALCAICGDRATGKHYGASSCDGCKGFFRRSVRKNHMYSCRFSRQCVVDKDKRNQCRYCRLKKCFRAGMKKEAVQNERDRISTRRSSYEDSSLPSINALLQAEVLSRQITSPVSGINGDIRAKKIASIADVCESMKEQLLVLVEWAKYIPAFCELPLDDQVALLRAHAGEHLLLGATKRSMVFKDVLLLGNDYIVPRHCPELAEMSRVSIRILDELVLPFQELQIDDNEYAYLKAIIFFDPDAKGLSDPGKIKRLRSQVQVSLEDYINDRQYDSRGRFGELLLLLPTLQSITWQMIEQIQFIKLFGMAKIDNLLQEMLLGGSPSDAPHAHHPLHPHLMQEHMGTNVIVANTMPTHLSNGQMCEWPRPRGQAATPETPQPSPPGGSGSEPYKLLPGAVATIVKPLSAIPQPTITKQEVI
Experiment: protein-binding microarray
Conditions: COS-7 nuclear extract on double-stranded Agilent 4x180k PBM; binding buffer, salt, pH and temperature not given; high values mean tight binding; double strand, one strand shown; sequences stand for … in …GCCTAGGGAGATTAGAGTATCGGTCGA

Sequence	binding signal (log2 normalized intensity)
TCCTAGGGTTAAAGTCTACAACCAGAACTT	2.8
CTTTGCTCTCTGAAATGAAGGTCAGCAAAT	1.03
AAGTTCAGTGAGATTAGGAAGTGTGCACAA	1.17
AGCCCCTTTGTCCATTATCTCACTTATTTG	1.09
TAAACCAGCCTAACAGGATTTTTGCTGAAG	-1.14
GAACCAAGATCTGTGAAAGAAAAGTACTTT	1.12
AGAAGCCTCTGGACAAGGGAAGCGTCAATG	-1.11
ACTGAGATGGGAGCAGTGCTCAGATAAGAT	-0.87
GGCTGATAAGACACATTCCATGCTTATCAG	-0.713
CCTTCCGACCACTGGCTGAACAGGGTCAGT	1.99
CGCTGGACTCTGCTCCTAAGGCAGGATTGG	0.801
AGTTAACTCACACACCCCAAAAGGTCAATC	3.99
ATATGAACTTTGGAAATGCAAACACCTACA	-1.13
CACTTACAAGTGTACAAAGGTCACTTCTGT	6.32
TGGCACCTGAAGCTGCCCTTTGCACATGCC	4.08
TGAGGTCGGGGCCTGGTCTGCACTCCAGGA	-1.15
CAAGTCCAGCGAGGTTATTTCACCCCAGCA	2.46
TACATGGCCTGCATGACTACATTCTTTGAA	-0.722
GACCCCCTACATAGAGAGCAGTCTTGAGCG	1.73
TGTATTTCGGGGCACTGCTCCCTGCCCCTA	2.42
AACTCTATCATACTCAGCTAATCTAGAGAC	-0.844
CAAGGTGGTGAAGATGTCCTGTAGAAAGCG	-1.12
GTTTTGTAAACTCCCTTTGATGCGGTCAGA	1.36
TCCTTATCCTCATTGTGTGCAGACCTTCTC	1.39
GATAACACTGATAACATGAGGTAGAGGGAC	-1.26

Sequence	binding signal (log2 normalized intensity)
CCTTGGATTAAAGGAGAACTGAGTAGGAGA	-0.974
GTCTTCCTCAAATTACAAAAGGAGTTGGGG	-1.08
TCAAGAGAAATGTTATCTCAGTAGACTAAC	-1.08
CATTAAGCTTAGCGTTATCAAACCAAATAT	-0.0208
TGCAAGTTACCTTGGGGTCAAAGTACATCC	8.65
GAGACAACTGCAACAGGAGGACCTCTGGAT	-1.05
GTATGGACTTTCTGATGTCAGAAAATGCAA	0.478
CTCAAGAATTGTCTAACCGCAGCAAGACAC	-1.14
CTTTCAAGGCAGATTTCTGTCTTTGATCTG	1.02
CTGCTTTGTGGCATCAGGGTCCACAAGGGT	2.4
TCAAGATGTCTCAAGATATCTATATGTTTA	0.723
AGTTCAAACTCTGAAAGCACTAAGTTACCT	-1.16
GGGCTAGTCCCTGAGTATTATCTTTTTAAT	0.626
CACAAAAAGGCTGTCACACTTGCCCTTTGC	4.82
CCATGACTGCTCCCTCTGCTCCCCTGGCCT	2.57
GAGGGGGGAGGGTCGGCAACGGTGATTACC	-0.962
GGGCCTGCGAGGTTACAGGGTTCAACACGT	2.06
ATGGGAACTTCTCACCTTCAGATGCCATGT	1.52
CTCTGCCCCTCATCGAGGCCATCCCAGTTA	3.46
TGACATTGGTGGAATCTGAACTTTTGGCTC	2.03
GCCAGGACAAAGGTCCTGTGGCCTGGGGAG	0.557
AGGGACTCAGGCACACAAAAAAAACCACTC	-1.21
TTGTAAAGGGTAATCTGCTTTTCTCGAAGC	-1.02
CTGACCCCAAGTAATAGCCGTTTCTGTCCA	1.4
CCACGGAGCACATTCCATGCCCGGGTTGCT	-1.07

Sequence	binding signal (log2 normalized intensity)
GAAATCATCTCCATGCCGACTCCGAACTAT	-1.06
CTATGTTTAATGTATAAACCCTGAGGGTCA	2.26
ATGGCTAGAAAGTCAGTGAAGGAGCTGACT	-0.475
GCCAAGCTCTGGGCTAGTCCCTGAGTATTA	-0.902
GGGTTAGGCCTGGAACCTGTCTGACAGGAT	-0.206
CTTGTCACTTTCCCTTTGTCTCCAGGCCCT	0.67
TTTGCTTTTCCCTGCTGCTGGCTGGCGGCC	-0.985
TTTGGGTAATAACATGTAATTGCATGACCA	1.72
AGCCTTTCCTCAGATGGAATGTGTGCCCGT	1.76
CGTCACCTTTATCGAACCTATTGTTTAATC	1.76
TTAGGATAGGGTCAGTCTTTGTTCTAGTAA	1.55
CAGACAGCAGTCTGAGTAGGAAAGACTTGC	-1.11
TGCATGTGTTCACACCACACTCTCCTCCTG	-0.622
CCCTCTGAGTGTTTGACCTTTCACCCAGAA	6.42
GGCGGGTTCTGCCATCTCGCAGAAAGTGGC	-0.149
CTAGCATTAGGACCTGTTTGTCTTGCTGGG	0.512
ATAGACTGTCCCTCAGTGTGGGACTTTGGT	2.72
TGACTTTATCATTGGACTCTCTCATTCTGA	2
GCAGAAGGTGTTTCAGATGGACCAAAGGTC	5.41
CCTGGGTGCTCCCTCCCCCTGCATGAACCT	4.07
GTTAGGGCCATTTGGTCTGTAGTGTTGCTC	1.51
AGAACACAGTCATTTATTCACTTATTTGTT	0.626
GGAGTTGTCTGTCCAGTTCAGGAGTTATCA	1.19
TAAGCACCCAGATAAGTTATCCTTGTTCTA	-0.046
GCTGGGATAACCGAGGCTGACAGCAGAGAG	-1.08

Sequence	binding signal (log2 normalized intensity)
GTCCAGTTGAATGATGGCGAGTGTGCAATT	0.58
AAGTTCATGGAAAGTTTCACTTTCTCTTAT	-1.16
TTCCAGCAAAGAGATTAGGACACAGCAGAG	-1.09
TTTCCCTGGGGTCAATAGTTGTGTAAATAG	2.07
TCGAACAGTTGGCCACCTTTGGCCGAAACT	2.15
GTCCTCCTGTGGCCACAGAGCGCCTAACTA	-1.13
TCGAAGGCCAAGGGATTTCAGTGCCCTCAT	1.14
ACACCAAGCAAGCTCTGCAATAGAGCCACA	-1.18
AATACAGCACTCAAATGATCAAAGAAGCCC	-1.16
TTTGATCAGCTGGTCCTTCAAGTGTGACCC	3.95
GGCTGTCTCAGTGGGTGGGAAAGGGTGCTC	0.926
ATCCCTCGTAGGCAGGGCCAGATAAAGCAG	-1.13
ACAGCACTTAGGGTTCAAAGGTTGTTGAGC	6.05
TTAGGTGGACAGGGGTGTGTTGACCGATAA	1.59
ATAGCTGAAATTTGTATCTTGGGTTAGGCC	1.24
GTCTCAAAAAAAAAAAAAAGGCAGTCCTTA	-1.07
GCATCTTCAACTGTGTGAGCTGATCACACC	0.214
TTAGTGGAGTATAGGAACATGAACTGAGCA	0.379
CTGCTCAGGGTGGGGTCTCGCTGCTTCGGC	-1.09
CTCTGGCCCTTAAAGGCTTTTGCAAGAAAA	-1.04
AACTTTCTTTTTGTTGTTAGAACAAAGTCC	4.02
GGCAGCCAGCTGGTTTGCCTCTCTTAGGTG	-1.14
ACACATGATAAGATTTATCTCTCCAAGGTA	-1.19
CAGAAGGCGCTGAACTTTGCCTTGTACACA	3.65
AGCAGCTAGCAAATACAAGGACACTGAAAG	-1.29

Sequence	binding signal (log2 normalized intensity)
AATCCTCAGCCTTCTCCGCGGCGGGCCCTC	-1.18
TATATTGGATAGTGCCTTTTCTAATATCTA	0.877
TAGGAGACTGTCTTAGGAAAGAACAGGTCA	1.14
TAACGACCTTTGGGCTAAAAAGGAAGCTGT	1.84
TGGAGAAAGCAGCCAACCAGAGGCTGAAGT	-1.07
ATAAAGAACGCTCACAGAAAGAAGAGACAG	-1.05
GTCTCTCTCTCATGCTATGCTCTCTCTCCA	0.812
CCTTTCCCTTCTTCTCCTCCCAACAGGTAT	2.48
TGCTCCTGCTTGCTGGCTTTCCCACCCATG	1.34
CAGCATGGTATGTGGCTTGCCGCATTCCCA	-1.1
TCTACTTGGTGGGAGGAGGGGGGAGGGTCG	-1.26
TTTCTCTGCACACACTCACAGAACACAGTG	-1.12
AGAACTGGTCCGCCTTCATTCCTAGCCCCA	2.37
ATTTGACCCTTGGCCAGGTGCAGTGGCTCA	2.99
TCTGGTAAACAGCTGACAATAAATTCCAGG	-1.16
AATGTCTGCTGTTGCACCTCTTATCAAGCG	-1.09
CTTATAAATCTTCAACTGGAGGATAAAGTT	1.15
TCCTATTCGGTGCTGACCTTTGTTCACATT	5.89
GCTCACTTGGGGGTGGGGTGCTGCCTTTCC	0.498
CATCATCTCAGGGAGTGCAAACTTCTTTGA	0.898
TTAGGGAGGGGCCAGGACAAAGGTCCTGTG	1.38
TGCCTAAATCCAAAGGGCATCAGCCCCAAT	-0.554
CTTCAGCATCTTCAACTGTGTGAGCTGATC	1.61
GCTCTGTTTTCTGACGCAACAGAAAACTCA	-1.18
TAGAACAGGGCTTTAATTACCTGTTCTAAG	-1.18

Sequence	binding signal (log2 normalized intensity)
AAAGGTCAGTCCCGCAGTGAGGGACAAGGC	-1.13
AGACTTTTAAGTGGGGTCAAAGGGTACAAA	5.06
CTAGCAAATACAAGGACACTGAAAGGCATT	-1.12
TTCATAATTACCATTCTTGAGGACAGGCCA	0.321
GACCTGCAAACAGCACTCTCTGATTACACA	-1.06
CTTCAGATGCCATGTCTAAAGGCTGTGTCG	1.99
GTCCCTGCCCTTTGTCCAGGGTGAGAGGGA	1.39
AGGTTGTACTATGACCCAAACTTCACAAAA	2.07
GGCGTGGACTTCGCTCCGCCGCTAGGTGGC	2.49
CGATAAGCTGACCCCAAAACCCCCAAAGGT	4.67
TGGACAAACAGGCTGAACATGACTGGCATT	-1.15
TCCACTCTCCTATCTTTCCCTCCACTTCCT	1.05
TGAGCCCAGTGGAGTAGGCTTTAGATAAGG	-1.14
AATTCTTGTCCCTTTCAAGGGCTTACAACT	-0.219
ACAAAGTTCCTGAGATAAAAAGAAGCTTGG	-1.21
AGCTCCATCTGAACTCTTCATGGACTCCTC	2
CTGGGTCTGTCCTTTGTGTTTATGGCAAAT	2.27
AAAAGAGCATAAGGTTTCCATCAAGCCTTT	-1.04
TTTTCAACAATGTTATCTTTTCAAGGATGT	1.68
CCAACGGTCGGAAGGGAGGTGCCATGTCAC	-0.713

Source: PMC10726135
